Measurements taken from article PMC10726135.
This is one part of the list. At the low end of the ranking the order means little. The protein was read in a cell extract, so binding may be indirect.

Target: T1, HNF4alpha8 (COS-7 nuclear extract) (UniProt P41235-5)
T1 sequence: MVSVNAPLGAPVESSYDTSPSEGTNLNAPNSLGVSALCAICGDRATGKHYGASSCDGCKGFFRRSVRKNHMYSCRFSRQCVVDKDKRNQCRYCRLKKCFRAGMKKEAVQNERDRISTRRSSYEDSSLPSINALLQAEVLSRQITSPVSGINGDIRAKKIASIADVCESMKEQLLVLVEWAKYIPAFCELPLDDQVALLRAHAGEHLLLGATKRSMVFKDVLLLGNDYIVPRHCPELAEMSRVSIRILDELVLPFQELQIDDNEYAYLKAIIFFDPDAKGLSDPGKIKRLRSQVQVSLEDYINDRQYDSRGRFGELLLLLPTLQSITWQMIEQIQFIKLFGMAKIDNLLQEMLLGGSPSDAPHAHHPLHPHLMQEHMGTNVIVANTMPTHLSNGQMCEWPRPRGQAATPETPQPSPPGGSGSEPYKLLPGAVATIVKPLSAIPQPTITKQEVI
Assay: protein-binding microarray
Conditions: COS-7 nuclear extract on double-stranded Agilent 4x180k PBM; binding buffer, salt, pH and temperature not given; high values mean tight binding; double strand, one strand shown; sequences stand for … in …GCCTAGGGAGATTAGAGTATCGGTCGA

| Sequence | binding signal (log2 normalized intensity) |
| --- | --- |
| TCTGTATGTCTAAGGTTTCTCAGCCCCATC | 4.22 |
| GATCAAAGGCCACCGTTGGAATGTTCCAAG | 1.58 |
| CCAAAGGTTAAGGAAACAAGGGTACCAACA | -1.48 |
| CTTGGCCTCAATGTTTACACTTCCATGTTT | 0.861 |
| CTGATCCTCTCCATGCAGCCAGGGTCAGGA | 2.37 |
| ACGTTTTCCTGCTGACCCTCTCCCCACCAT | 4.76 |
| AGACATCATATTTGTTATATTTGTTATACC | 1.55 |
| CCCATCGACCTTTGCTCCCGACTCTGAGGC | 5.95 |
| ATAAGGCTAAGTGGAGGATTTGGGTGATGT | 0.76 |
| ATACCCATTCACATGACCTTTGTCCGTTCC | 7.49 |
| CTGTGGACTCTGAGCCTCCTCCCTCTCTCT | 2.41 |
| GTCTCCCTACCTCTGCACAGCTCCAGACAT | -0.945 |
| AATATCCACACAAACCCAGTTTGCATTTTC | -0.51 |
| CTAATCAGGCCTCCCTCCCTCCCCCATTAG | 4.79 |
| AAAATCAGTCTCAGTGGGCTAAACATCAAG | -1.07 |
| CTGGGTTTCTTCCCTAATGGACATCTCTAG | 0.0618 |
| GACACAAAAGGGTACAGCAGCATAAAGGAC | -1.19 |
| ACAGAGCTATTTTAGGGTAAAGATCTTGGG | 0.642 |
| TCCCCCACCTACTGTCTCCTAATCAGCAAC | 2.03 |
| GGGTGTAAACCTGGTGGAAGATAAGGGTTA | 0.213 |
| TGGGGTATCAGGTGGTGATGGTGGGAGGGA | -0.797 |
| ATTTGAGCCCAGGAGTTCAAGACTGGTATC | 0.557 |
| GCCACTGCCTAGATAAAAGGGTCTTAGTAT | 0.0165 |
| AATACTTGGAGACAGTGAGACGCAAGCATA | -1.35 |
| AGCACTCAAATGATCAAAGAAGCCCAGGGC | -1.42 |

| Sequence | binding signal (log2 normalized intensity) |
| --- | --- |
| AAAATCACTTGGATAGCGCGTGGCCCAAGG | -1.34 |
| AGAGGGCCTCTGCTTGTCTTGGTTGTAGAA | 0.69 |
| GCTATCAATGACCCATGTTTGCCCTTGATA | 3.01 |
| AGCTCTTTGCACAGTACTGATCTGGGGCCT | -1.21 |
| CATAGTGGGTTTCGGTGTCATCTAGACCTG | 1.56 |
| TAAAGTCTGTTTGATTCCATGCTGATAATG | 0.985 |
| AAAGATCATCTGGTGGCTTGAGTTGGAGAA | 0.586 |
| GGGACAAGGCTGTCCCCCATCTCATCCTGG | 0.358 |
| TCAGATATCTGAATGTACCTTTGAAACCTA | 3.79 |
| GAGAAGGCAGGTAGAAGAAGAGGTCAGCTT | 1.04 |
| CATCCTGAGGCAAAATTCCTCGCTAGCTGT | -1.21 |
| AAGAGAGAAAGAAACAGGGGATGTTGATTC | -1.28 |
| GCTGACGCCGCCTCTGCCTCTTGACCCCTT | 6.14 |
| CTTGTGGATCCTTGGAGGACCTTGGGTTCA | 3.21 |
| GATGGGGGCAAAGGTTGACACCTAGCTGAG | 5.11 |
| AATATCTTCCCATAAAACCTAGACAGAAGC | -1.36 |
| CACAGGAGAGGAGAAAGAGCAATCTCTCAT | -1.39 |
| TGGGAGCTAATGAGCACATTCTTCAATATC | -1.2 |
| TAGCCACTCTACAACAAAGGAAATGAAGCA | -1.08 |
| TTTCACTTTTTCCCTGCATGTTCACCTCTT | 1.68 |
| GGCGTCTCTTAGTATTACCATGTCCTGTGA | 1.49 |
| GGAAAGCTATCCCGGCCAACGGTCGGAAGG | -1.1 |
| ATGAGATAAGATGAAGCTCTCAGAATAGCA | -1.41 |
| TTAGAGTCCAGACACAAAGAGACAAAGCTT | -1.27 |
| ATCCCCAGTATAAACAACACAGAACTAGCC | -1.46 |

| Sequence | binding signal (log2 normalized intensity) |
| --- | --- |
| CTTTTCTTCCCCCCTCCCTCCGCAACCTTT | 5.88 |
| CAGGGTGACGTCATTGGAAATCCGAAATAA | -0.182 |
| TTAGTCCCTAAGTCTTTCAAAGAAAAGCCT | -0.975 |
| GTCCAGCCACAATTAATGTACCCCCGGAAA | 4.46 |
| TCAAATGCAAAGGCAAACAGATGAAGTACT | -1.37 |
| CACCTGGCCAGCGACTTTAGGGGCCAAGGG | 0.115 |
| TCTTCCCATCTAACTGCCCCTGATATCTGA | 3.01 |
| TGAGGTAGTTGAGTGCCTCCATTTCACAAA | -1.13 |
| AGGTGGAGATAAGGAATTTGTTAAGAACTG | -1.17 |
| CTGCCGAGGTGTCCTGTAAATAGTGTGTCA | 1.42 |
| CTTCCAGGGAATAAAGAACTCTAAGCAGCG | -1.26 |
| CCTCAATGTTTACACTTCCATGTTTGTCTT | 1.7 |
| GGAGATGCCGTTAAGCAGATAAGGTGCGGG | -1.35 |
| TGAATATGTACATGGACTTTGAACCAAGAT | 8.87 |
| ATATTCAAACAGGTCAAGCAATGCTGGGGA | -0.636 |
| GGCAAAGGGCAAGGCGTCTCTGCCAAGGGG | -1.41 |
| AAGCTTCACTGACATTCCAGCCACTAAGAA | -1.36 |
| CAAATTCCTCAATCCAGTCATCTCACACAA | -1.13 |
| GGTTGGGGCCTCCCTCCGTGGGGCTCCTTT | -1.18 |
| GCCATTCCAGAAGTAGGATGGGGAGGGGGC | -1.32 |
| CAAGCCAGTTTCCAGGGAGGAGAGAAGGGC | -1.26 |
| GATTAAACTTTAGTCAGATTCCTCTGAGTC | 1.57 |
| TTTCTTAATTGCCCTTTGCCCTTTGCCCAA | 8.84 |
| ATAACTTCAAGGAGCTCGGCGCCAGGAAGC | -1.28 |
| GGATAATGGAGAAGATAAGCAGATCTTTAG | -1.43 |

| Sequence | binding signal (log2 normalized intensity) |
| --- | --- |
| GTGTGACCAAGGACAAACTGAGGAGGACAT | -1.24 |
| CTGGTTCTGCAAGGCAACTGACCTTTGGAT | 8.71 |
| CTGTCCCTACTCAATTATCACCACACAGCA | -1.27 |
| TGCAAGGGAGACCAGGAAAGTGAATATCTG | -1.35 |
| AACCCATTTGTTAGTCTCTGGGCCTCCCCA | 1.62 |
| GTTTGCAGGGACAATGGATGGAACGTGGAC | 1.19 |
| TGACGTCATTGGAAATCCGAAATAAACTGA | -1.27 |
| GAGGAGAGAGTAAATAATTGATGAAACAGG | -1.14 |
| AAGAGCCAAAATGTGTTAGGCAAGCAAACT | -1.25 |
| CATTGAGTCCACTGAGATCACTTGGGGTAA | 0.837 |
| ATCCACTCAGTATGGCAACCTTTGTCCTGC | 5.46 |
| AACATGTAATTGCATGACCAAGTTGTATCA | 1.26 |
| TGCCCAACCTTTGCCCCTGGAGGGAGACAT | 4.02 |
| TAACTTCCGGCTGGCCTTCCCTCCTCCCTC | 2.13 |
| GACAACATCTGGTGTGGTTAATGATTATGC | 0.968 |
| CGTGGAAAGTGGAAGAATGGGAAATTCCAT | -1.38 |
| CATCATCTTGTAATCTGCTTCCAGTTCCAT | 0.387 |
| TTTTGTTCAATATGCTGAAGTCCAACTGCT | 2.07 |
| AGCTCCAAAAGGTGGACAAGACTGGTTTTT | 0.215 |
| GAAAGTACACAGTGCCTGCTTGCAGATAAA | -1.42 |
| ATTCCCCTTTGTCTAAGCTAGTCATAGCTG | -0.154 |
| TTTGAACACCTCTTCTTTCTTCTCTGGTAC | 1.8 |
| GCTTCTGTACCTTTGACTATGGGCATGAAG | 1.24 |
| GTCTAGGTTCTGGGGTGATTACCCTTATCT | 1.61 |
| CCTACCAGTATGCAATGTTAGTCTGGGAAA | -0.0207 |

| Sequence | binding signal (log2 normalized intensity) |
| --- | --- |
| CAATAAGCAATACATTGAACTTTGAACACC | 7.99 |
| GAATTCAAAGGTGCAAAGGTTAAAATGCCC | 4.97 |
| GTAAACCCCAATCAGGTTTCTCAAGTGATC | 1.52 |
| GCAGAGGCTGGAGCAGGCCATGTGCAGAGG | -1.34 |
| AGGAGGAGAAGGGTGGGAATTGGGATAGCA | -1.3 |
| ACCTGTGTGTGTAGGCATAGGAGAAACACA | 0.101 |
| AAGGTATGGAGCTAAACAATTAAAGAACTC | -1.32 |
| AATGCGCCTGAACTGACTGCATTCCCTTTC | -1.05 |
| CTGAAATAGGTAAGCTGGCCCGGGAAGAAG | -0.605 |
| ACAAACCAGCTTTGAGATGATAAAAATTTG | -1.26 |
| ATGATACGCCGGCCAATCCGGCTGGCAGCC | -1.41 |
| AGAACACGGAGTCCTTCTGGGGCTAGGTTT | 0.403 |
| TCCAGATTAGAGCACAATGTGGGGAGCACA | -0.575 |
| GATTAATTACCCACAGGTGTGTTGACTCAA | 0.511 |
| GTTCTATGGGATGACCTTTGAGCAATAGGA | 6.05 |
| AAAATGAAAGCAAGGGCCAGATCAAAGGCT | -1.37 |
| TGCTGACTTTCTGTGTCTTGGCAGTGATCA | 1.88 |
| TCACGAAAGGCAACATCTTGAGCCAGGAAT | -1.34 |
| ACGGAGAATGTAGACCTTTACCACCCTCAC | 1.14 |
| ATTTCTCAGGAAGTGCTTGTTCCCTCCATC | 0.377 |
| AGTGCAAGGGAGAAATTGCGCTAACCAGAT | -1.29 |
| ACATCTCTCTCTGCAGCTGAGTAGAGGAAA | -1.01 |
| CCTAGCAACCTCCACATTGCAACAATGTCC | -0.718 |
| CAGATAACAGCGAACATGAGGAATAAACTT | -1.43 |
| GCTGAAAACTATGCATGCTGTGTGTGTGTG | 2.21 |

| Sequence | binding signal (log2 normalized intensity) |
| --- | --- |
| TTGACCCCTTGGCCCCGCTGTCCTGATCCC | 4.66 |
| CTCTGCACACACAGACATAAACACAGACAC | -1.3 |
| GGCCCATTTTCCCATGGTCTGTAGAAGGCG | 0.0788 |
| CTCTTCCCAACTTGGCCTCAATGTTTACAC | 0.841 |
| GCTCTGGTTCAAACAAGGCCAAAGTCTGGC | 2.66 |
| TATCTGACTGATGCTAAAGTCTACATTCTA | 1.25 |
| TTGTAGCCTCATTTCACCTTTGGTCTTTGG | 5.52 |
| TTCTGATAAGAGCATTTTTGTATGCATAAG | 0.847 |
| GCGCGCTGGGAAGGCTCGTTCTCGCGAGAG | -1.27 |
| CAGTAGGTCAGTGTCCCTCTTATACTCTCT | 0.12 |
| ATGGGAAGCTTCACAAAGGGCTGAGGTTAA | -1.06 |
| CTCATCCTGTGACCAAGAATGCCTAACCTC | -1.38 |
| ATTAAGCTGAGGCAGAGTTGTTTGCAGAGG | 0.266 |
| TCTGTACGGAAGGCCGGGCCTCAAGGGAAT | -1.32 |
| CATTGCAAAATCCATCTAAATGGCAATGGC | -1.28 |
| AAGGGACAAAACTTCAAAGCCCCTGAGGCC | -1.19 |
| TTTTTCATGCAAATTTCCGTGTCGAAACTA | -0.73 |
| GAAAAGAGGAAAACCAGCTCAGTGGAAATT | -1.42 |
| GTGGCCATCTTCACGCAATACTAGCAATAA | -1.25 |
| GCCAGATGAAGCTGCAGCCTTAAGAGAGTT | -1.38 |
